# Results as given in the supplement of paper PMC12217912.
# Some of the results follow. The full chains were built here from the parent and the listed change. Inactive controls read about 0.05.
# B1: TEV protease; numbered along this chain (parent)
# chain: MGESLFKGPRDYNPISSSICHLTNESDGHTTSLYGIGFGPFIITNKHLFRRNNGTLVVQSLHGVFKVKDTTTLQQHLVDGRDMIIIRMPKDFPPFPQKLKFREPQREERICLVTTNFQTKSMSSMVSDTSCTFPSGDGIFWKHWIQTKDGQCGSPLVSTRDGFIVGIHSASNFTNTNNYFTSVPKNFMELLTNQEAQQWVSGWRLNADSVLWGGHKVFMVKPEEPFQPVKEATQL
# Variants of: B1
# Assay: raw area under fraction-flipped curve 0-4 h after induction (AUC4h, not background-subtracted), DNA-recorder readout of cleavage of the substrate (dimensionless); higher = more cleavage of the substrate by the protease variant
# Conditions: temperature: 34 °C; time window: 0-4 h after rhamnose induction
# Description: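 In vivo DNA recorder in E. coli TOP10(DE3) ΔrhaA at 34 °C. Each TEVp single-site mutant (parent TEVp 0) is paired with a single-site variant of the 7-mer TEVs (canonical ENLYFQ|S). The substrate sits between flexible linkers in a Bxb1-sfGFP-TEVs-SsrA fusion, so cleavage stabilises Bxb1 and speeds flipping of a recombination array, read by NGS. The value is the raw area under the fraction-flipped curve over 0-4 h after rhamnose induction (AUC4h), with ≥20 reads per time point. It is not background-subtracted; inactive controls average about 0.047.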
# 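Also: Bxb1 expression induced with 0.2% (w/v) L-rhamnose at OD600 near 0.5, cultures sampled hourly, flipped fraction per protease–substrate barcode pair counted by paired-end Illumina sequencing.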
Variant,area with substrate ENLYCQS,area with substrate ENLYDQS,area with substrate ENLYGQS,area with substrate ENLYHQS,area with substrate ENLYIQS,area with substrate ENLYKQS,area with substrate ENLYPQS,area with substrate ENLYQQS,area with substrate ENLYRQS,area with substrate ENLYSQS,area with substrate ENLYVQS,area with substrate ENLYWQS,area with substrate ENLYEQS,area with substrate ENLYMQS,area with substrate ENLYNQS,area with substrate ENLYTQS,area with substrate ENLYYQS,area with substrate ENLYLQS
R50C,0.088,0.0621,0.0662,0.0891,0.138,0.0672,0.0771,0.0687,0.057,0.0741,0.13,0.0617,,,,,,
P225K,0.0949,,0.0757,0.0726,,0.0643,0.0677,,0.0707,0.0705,0.0959,,0.0531,0.0608,0.054,0.0699,,
T132C,0.129,,0.0671,0.0753,0.108,0.0745,0.0785,,0.0844,,0.119,0.0631,0.058,,0.0701,0.0942,,
Q105I,0.0889,0.0648,0.0664,0.0694,0.119,,0.051,0.0401,0.0627,0.0777,0.123,0.046,0.0985,0.0888,0.0697,0.0881,0.0705,
E195R,0.103,0.0762,0.0846,0.0832,0.127,0.0693,0.0668,0.0604,0.0707,0.062,0.0654,,0.0636,0.0811,0.066,,,0.0681
D27S,0.0852,0.0725,0.0703,0.0584,,0.0672,0.061,0.0705,0.0552,,0.104,0.082,0.046,0.0874,0.0927,,0.0572,
T70L,0.0927,0.0645,0.059,,0.107,0.0638,0.0552,0.0256,0.0735,,0.079,0.0626,0.0683,0.0717,0.0836,0.0566,0.0457,
W203V,0.0779,0.0638,0.0455,0.0564,0.0627,0.0578,0.0533,0.0597,0.0588,0.0376,0.0848,0.0614,0.0616,,0.0641,,0.0548,0.0767
K100Y,0.0883,0.0587,,,0.0977,,0.0775,,,,0.11,0.113,0.0688,0.0777,0.0552,0.0884,0.0639,
W199P,0.07,0.0663,,0.0558,0.0787,0.0659,0.0644,,0.0733,0.0558,,,0.0808,0.062,0.0618,0.06,0.0702,0.064
L22C,0.0919,0.07,0.0531,0.0693,0.0855,0.0609,0.0785,0.0646,0.0623,0.0724,,0.0619,0.0655,0.0881,,0.0744,0.0652,
N13H,0.106,0.0534,0.0689,0.0662,0.14,0.21,0.0834,,0.0491,0.0786,0.168,0.0699,0.0665,0.0994,0.0726,0.0787,,0.105
P14E,0.082,0.0673,0.0671,0.0809,,0.0331,0.0552,0.0463,0.0587,,0.121,0.0772,0.0551,0.0855,0.0466,0.0785,,0.0792
E231V,0.0907,0.0753,,0.0905,0.0989,0.0369,,0.0478,0.0688,,0.125,0.0882,0.0901,0.0655,0.0784,0.0884,0.0682,
P89L,0.0626,0.0653,,0.0381,0.0884,0.056,0.0332,0.0589,,,,,0.0412,0.0808,0.0468,,,
S26E,0.0724,0.0619,0.0907,0.0567,0.121,0.0683,0.0368,0.0695,0.0569,0.074,,0.0655,0.0773,0.0647,0.0494,0.0598,,
K221L,0.132,0.0532,0.0818,0.0526,0.0713,0.0293,0.0783,,0.0596,,0.0922,0.0752,0.058,0.0723,0.052,0.0454,0.0626,0.0617
K221S,0.062,,0.0576,0.0601,,0.0552,0.0614,,0.063,,0.121,,0.061,0.0757,0.0623,0.0691,,
G63R,0.0901,,,,0.106,0.0723,0.0571,0.0696,,,0.0985,0.0793,0.0672,0.0589,0.0705,0.053,,
G136C,0.0924,0.0626,0.0585,0.0648,0.115,0.0649,0.0775,0.069,0.0634,0.081,0.131,0.0776,0.0808,0.0874,0.0731,0.0732,,
S171C,0.0703,0.0637,,0.0602,0.0927,,0.0614,0.056,,0.0674,0.0766,0.0723,0.0645,,,0.0721,0.0643,
T233Q,0.102,0.071,0.0775,0.0795,0.151,,0.0739,0.072,0.069,0.0484,,0.0877,0.0628,,0.087,0.0838,,
F95H,0.0735,0.0603,0.0694,0.0589,0.0983,0.0686,0.0575,,0.0742,,0.0836,,0.0448,0.0991,0.0577,,,
K185C,0.0891,,0.104,0.0741,,0.0616,0.0813,0.0607,,0.0839,0.108,,0.0695,,0.0697,0.0748,0.0627,
D79K,0.0779,,,0.0627,0.105,,0.0746,,0.0534,0.0675,0.0971,0.0673,0.0683,0.0663,0.0597,0.0699,,
F133L,0.0916,0.0553,0.0834,0.0519,0.213,0.0494,0.0788,,0.0481,,,,0.071,,,,,0.0912
